According to PubChem BioAssay AID1466 (National Center for Advancing Translational Sciences (NCATS), 2008):
About 10 (0.005%) of roughly 200,000 compounds were called active. The shares of active, inactive and inconclusive entries below differ from those in the screen. Calls follow the shape of the dose curve; as a rule, active = well fitted inhibition curve with a large enough effect; inconclusive = small, poorly fitted or top-dose-only effect, or effect the other way, or another doubt; inactive = no such curve, though single readings can be large or run the other way. No potency is given beside an inconclusive call; the fits are too rough.

target: Lysosomal alpha-glucosidase (Homo sapiens) (UniProt P10253); test: qHTS Assay for Inhibitors of Human alpha-Glucosidase as a Potential Chaperone Treatment of Pompe Disease; settings: purified human GAA, 4-MU-alpha-glucoside fluorescence; activity change, negative = inhibition: at 76.9 µM (top of the series) unless noted;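 as to activity change, negative = inhibition: plate controls were uninhibited enzyme wells for no effect and no-enzyme background for full effect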
Summary of the method: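 Fluorescence at Ex 365/Em 440 nm from 4-methylumbelliferone reported enzyme activity after 20 min at room temperature. Reactions used 4 nM enzyme and 400 uM substrate at pH 5.0; curves fitted with the Hill equation.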
Potency is read from the fitted curve at half-maximal effect; tags tell the direction and shape of the fitted curve.

SMILES	activity change, negative = inhibition	Potency
CC(C(=O)O)n1cnc2sc3c(c2c1=O)CCCC3 (centres undefined)	inconclusive: 1.64% [activator]	
CCCCc1ccc(NC(=O)CC(C)C)cc1	inconclusive: 14.2% [activator]	
CCNc1c([N+](=O)[O-])ncn1C	inactive: -8%	
C=CCN1C(=O)C2(NNc3ccccc3O2)c2ccccc21 (centres undefined)		inconclusive [inhibitor, partial curve]
O=c1c(O)c(-c2cccs2)oc2ccc(Cl)cc12		inconclusive [inhibitor, full curve, poor fit]
Nc1ccc(NC(=O)c2cccs2)cc1	inconclusive: 5.98% [activator]	
COc1ccc(N2CCCn3c2nc2c3c(=O)n(Cc3ccccc3)c(=O)n2C)c(OC)c1		inconclusive [inhibitor, single point]
O=C(CC1NCCNC1=O)Nc1cccc([N+](=O)[O-])c1 (centres undefined)		inconclusive [inhibitor, single point]
CCOC(=O)c1ccc(NC(=O)CSC(=S)N2CCOCC2)cc1		inconclusive [activator, full curve, poor fit]
CCc1ccccc1Nc1nc(N)nc(COC(=O)c2cccn2C)n1		inconclusive [inhibitor, single point]
CCN(CC)C(=O)CSc1nnc(-c2cccc(OC)c2)o1		inconclusive [activator, single point]
CCCC(c1nnnn1CCOC)N(Cc1cc2cc(C)c(C)cc2[nH]c1=O)CC1CCCO1 (centres undefined)	inactive: -7.84%	
O=C(O)C(=O)/C(=C\c1cccc(Cl)c1)c1ccc2ccccc2n1		inconclusive [activator, partial curve]
CCN(C(=O)c1cnc(OC)cc1C(F)(F)F)c1ccc(Cl)cc1Cl		inconclusive [inhibitor, single point]
CCOc1ccc2nc(N3CCOCC3)nc(C)c2c1		inconclusive [activator, partial curve]
CCCCCC1CC(CC(C)C(=O)Nc2nncs2)C(=O)O1 (centres undefined)	inconclusive: -15.3% [inhibitor]	
CC(=O)NS(=O)(=O)c1ccc(NC(=O)C2c3ccccc3Oc3ccccc32)cc1		inconclusive [inhibitor, partial curve]
Cc1cc(C)n2[nH]c(=O)c(N=Nc3ccc(S(N)(=O)=O)cc3)c2n1		inconclusive [inhibitor, partial curve, poor fit]
CCCSC(=S)c1c(C)[nH]n(-c2ccccc2)c1=O		inconclusive [inhibitor, partial curve, poor fit]
COc1ccc(-n2c(Cc3cc(=O)[nH]c(=O)[nH]3)nnc2SCC(=O)N2CCCC2)cc1		inconclusive [inhibitor, single point]
Cc1cccc(NC(=O)N(Cc2cc3cc(C)ccc3[nH]c2=O)CC2COCCO2)c1 (centres undefined)		inconclusive [inhibitor, single point]
Clc1ccccc1Cn1c(/C=C/c2ccco2)nc2ccccc21		inconclusive [inhibitor, single point]

SMILES	activity change, negative = inhibition	Potency
O=C(CCCCl)OCc1cn(-c2ccc(Cl)cc2)nn1		inconclusive [inhibitor, single point]
CCN(C(=O)CN1CCN(c2ccccc2O)CC1)c1c(N)n(Cc2ccccc2)c(=O)[nH]c1=O	inactive: -5.77%	
O=C(Nc1ccc([N+](=O)[O-])cc1)Nc1ccc(OC(F)F)c(Cl)c1		inconclusive [inhibitor, single point]
COc1cccc(NC(=O)N2CCN(c3cccc(C)c3)C(C)C2)c1 (centres undefined)		inconclusive [inhibitor, partial curve, poor fit]
COC(=O)c1nn(-c2ccccc2)c(Sc2ccc(OC)cc2)c1/C=N/O		inconclusive [activator, full curve]
CC1CCCN(C(=O)CSc2nc3ncccc3[nH]2)C1 (centres undefined)		inconclusive [inhibitor, partial curve]
O=C(NNc1ccc(-c2csnn2)cc1)c1ccccc1C(F)(F)F	inactive: 0.526%	
O=C1CC(Nc2ccc(N3CCOCC3)cc2)C(=O)N1Cc1ccccc1 (centres undefined)	inactive: -4.91%	
CCc1cc(C(=O)O)c(NC(=O)/C=C/c2ccc(OC)c(OC)c2)s1		inconclusive [inhibitor, single point]
CC(C)(C)OC(=O)NCCC(=O)Oc1ccc2ccc(=O)oc2c1		inconclusive [activator, partial curve]
COc1cccc(NC(=O)CCCOc2cc(=O)n(C)c3ccccc23)c1		inconclusive [inhibitor, full curve, poor fit]
NC(=O)c1ccc(-c2ncc(-c3ccccc3)o2)cc1		inconclusive [activator, partial curve]
O=C(c1cc2nc(C3CC3)cc(C(F)(F)F)n2n1)N1CCCC1		inconclusive [inhibitor, single point]
CC1(C)Cc2c(sc3c2c(=N)n(Cc2ccco2)c(=O)n3Cc2ccccc2)CO1		inconclusive [inhibitor, single point]
CC(=O)Nc1ccc(SCC(=O)Nc2ccc(Cl)cn2)cc1		inconclusive [inhibitor, partial curve]
OCCC1CN(Cc2nc3c(s2)CCCC3)CCN1Cc1ccsc1 (centres undefined)	inconclusive: 15% [activator]	
CCOC(=O)c1c(NC(=O)CC2SC(N)=NC2=O)sc2c1CCCC2 (centres undefined)		inconclusive [inhibitor, full curve, poor fit]
COc1cc(NC(=O)CSc2nc(C)cc(C)n2)cc(OC)c1OC		inconclusive [activator, single point]
CCOC(=O)C1=C(C)NC(=O)C(C(N)=O)C1c1ccccc1 (centres undefined)	inconclusive: 18.3% [activator]	
CC(C)(C)NC(=O)COC(=O)c1snc(C(=O)NC2CCCCC2)c1N		inconclusive [activator, partial curve, poor fit]
Cc1cc(C)c(S(=O)(=O)Nc2ccnc(-c3cccnc3)n2)c(C)c1	inconclusive: -15.1% [inhibitor]	
CCCCNC(=O)c1onc(CSc2ccc(Cl)cc2)c1C(=O)O		inconclusive [inhibitor, single point]

SMILES	activity change, negative = inhibition	Potency
CCC(C)(C(=O)NC1CCCC1)N(C(=O)CNC(C)=O)c1ccccc1 (centres undefined)	inconclusive: -16.7% [inhibitor]	
COc1ccccc1Nc1nc(-c2c(C)[nH]c3ccccc23)cs1		inconclusive [inhibitor, single point]
CCCCNC(=O)CC1C(=O)N(Cc2ccccc2)C(C)c2nc3ccccc3n21 (centres undefined)		inconclusive [inhibitor, partial curve]
COc1ccc(OC)c(-n2c(Cn3c(-c4ccccn4)nc4ccccc43)n[nH]c2=S)c1		inconclusive [inhibitor, single point]
Cc1ccc2c(c1)N(CCC(=O)NC1CC1)C(=O)C(C)O2 (centres undefined)	inconclusive: -15.7% [inhibitor]	
COc1ccc(C(=O)Nc2ccc(S(=O)(=O)NC(C)=O)cc2)cc1[N+](=O)[O-]		inconclusive [activator, single point]
Cn1c(N)c(C(=O)COC(=O)C2CCC(C(C)(C)C)CC2)c(=O)n(C)c1=O (centres undefined)		inconclusive [inhibitor, single point]
CN(C)/N=C/c1ccc(OC(=O)c2cccc([N+](=O)[O-])c2)cc1		inconclusive [inhibitor, single point]
COCC(=O)Nc1ccccc1C#N		inconclusive [inhibitor, single point]
CC(C)C1C(C#N)=C(N)SC(N)=C1C#N		inconclusive [inhibitor, single point]
CC(C)(C)NC(=O)Cn1c(=O)n(CC(=O)NC(C)(C)C)c2ccccc21		inconclusive [inhibitor, single point]
N#C/C(=C(/O)c1ccc([N+](=O)[O-])s1)c1nc2ccccc2[nH]1		inconclusive [inhibitor, partial curve]
Cc1cc(C(=O)CSc2nnc(-c3cccnc3)n2-c2ccccc2F)c(C)n1C		inconclusive [inhibitor, single point]
COc1ccc(CCNC2CC(=O)N(N(C)C)C2=O)cc1OC (centres undefined)		inconclusive [activator, full curve, poor fit]
CCNC(=O)/C(C#N)=C/c1c(N2CCOCC2)nc2ccccn2c1=O		inconclusive [activator, partial curve]
Cc1ccc(-c2nnc(Nc3ccc(C(N)=O)cc3)c3ccccc23)cc1S(=O)(=O)NCC1CCCO1 (centres undefined)		inconclusive [inhibitor, single point]
Cc1ccc(-n2c(-c3ccco3)nc3nc4ccccc4nc32)cc1F		inconclusive [activator, partial curve, poor fit]
Cc1cc(/C=N/NC(=O)c2ccccc2F)c(C)n1-c1ccccc1		inconclusive [inhibitor, partial curve]
O=C(Nc1ccc(Cl)c(Cl)c1)N(Cc1cccnc1)Cc1ccco1		inconclusive [inhibitor, full curve, poor fit]
O=C(c1ccncc1)c1ccc(NC(=O)c2cccs2)cc1		inconclusive [inhibitor, full curve, poor fit]
